Results reported in patent US20220267438A1 (Janssen / Centocor, published 2022).

Columns and labels:
[1] = target: T1, CD3W200, recombinant CD3εγ heterodimer construct (human, UniProt P07766 22-118; P09693 23-103); assay: SPR, CD3 binding after pH 3.5 stress
T1 construct: also called human CD3 (SPR antigen for BGCB491)

[2] = target: T2, human BCMA (B cell maturation antigen, TNFRSF17) on cells (human, UniProt Q02223 1-184); assay: flow cytometry, H929-GPRC5D-KO cells (BCMA arm), 1 h 37C; Run 1
T2 construct: whole, on cells; Target on H929 or MM.1R GPRC5D knockout cells, K562 cells expressing human BCMA, HEK293 cells of the cell microarray, and BCMA-only lymphoma lines; also called CD269; surface BCMA
T2 sequence (looked up): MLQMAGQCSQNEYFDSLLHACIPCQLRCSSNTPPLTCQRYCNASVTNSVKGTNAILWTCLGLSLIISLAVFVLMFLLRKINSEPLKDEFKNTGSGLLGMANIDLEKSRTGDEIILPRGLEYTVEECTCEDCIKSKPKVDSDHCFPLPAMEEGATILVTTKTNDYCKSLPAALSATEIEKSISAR

[3] = target: T2, human BCMA (B cell maturation antigen, …); assay: flow cytometry, H929-GPRC5D-KO cells (BCMA arm), 1 h 37C; Run 2
Method: Flow cytometry was used to evaluate the BCMA and GPRC5D arm binding of BGCB491 in vitro. BGCB491 and isotype control were tested on a panel of H929-WT, H929-BCMA-KO, H929-GPRC5D-KO, and H929-BCMA/GPRC5D-KO cell lines after 1-hour 37° C. incubation.

[4] = target: T3, cynomolgus BCMA on K562 cells (cynomolgus monkey, UniProt A0A2K5UD97 1-183); assay: flow cytometry on K562 cells expressing cynomolgus BCMA, 1 hr 37 C, AF647-anti-human IgG
T3 construct: whole, on cells; also called cyno BCMA

[5] = target: T2, human BCMA (B cell maturation antigen, …); assay: flow cytometry, H929 GPRC5D KO cells, 1 h 37C; average of runs
Method: (§1) First, FACS-based binding for GPRC5D and BCMA binding arms of the trispecific molecule was determined by measuring the effective concentration (EC) range from a dose-response curve using a 4-parameter fit at 37° C. for 1 hr. This was assessed using an H929 suite of cells (WT, GPRC5D-KO, BCMA-KO, and GPRC5D/BCMA KO), and a similar MM.1R suite. Cell based EC₅₀ is approximately 13 nM for WT H929 (FIGS. 2A-2D, Table 7) and 2.4 nM for WT MM.1R (FIGS. 3A-3D, Table 8). A clear avidity affect is observed as EC₅₀ and Bmax are both reduced in GPRC5D-KO and BCMA-KO lines which test monovalent binding of target binding arms (Table 7). Next, cell-based EC₅₀ was determined for the CD3-binding Fab arm using purified Pan T cells from three random donors. […] Next, dose responsive binding was assessed at 4° C. to remove any potential biological effects. As shown in FIGS. 5A-5C, binding is stronger (50-100 nM) at 4° C., compared to 37° C., which may indicate internalization. Additionally, two expression lots of BGCB463 (BGCB463.003 from transient transfection and BGCB463.004 from a stable transfection pool), were directly compared with binding to H929, MM.1R, and Pan T cells and no differences were noted (FIGS. 6A-6C).

[6] = target: T4, human CD3 (CD3ε of the TCR/CD3 complex) on primary human pan T cells (human, UniProt P07766); assay: flow cytometry, human pan T cells, Donor 3, 1 h 37C; Run 5
T4 construct: whole, on cells; On T cells CD3ε stands in the whole TCR/CD3 complex
Method: (§2) For binding of BGCB463 to human and cynomolgus Pan T cells, three human donors (Hemacare) were selected, quickly thawed, resuspended, and aliquoted into a 96-well plate at 1×10⁶ cells/mL. Cells were then washed, Fc blocked if necessary (Innovex), and stained with viability dye (Invitrogen). BGCB463 and its corresponding isotype (B23B251) were diluted in complete media to an initial concentration of 2 μM and 1:3 serial dilutions in duplicate were performed for a dose-response curve. The cells were incubated with molecules at 4° C. or 37° C. for 1 hour. When necessary, incubation with 90% human serum (Sigma) was also performed as described above.
(§3) First, FACS-based binding for GPRC5D and BCMA binding arms of the trispecific molecule was determined by measuring the effective concentration (EC) range from a dose-response curve using a 4-parameter fit at 37° C. for 1 hr. This was assessed using an H929 suite of cells (WT, GPRC5D-KO, BCMA-KO, and GPRC5D/BCMA KO), and a similar MM.1R suite. Cell based EC₅₀ is approximately 13 nM for WT H929 (FIGS. 2A-2D, Table 7) and 2.4 nM for WT MM.1R (FIGS. 3A-3D, Table 8). […] Next, cell-based EC₅₀ was determined for the CD3-binding Fab arm using purified Pan T cells from three random donors. […] Next, dose responsive binding was assessed at 4° C. to remove any potential biological effects. […]

[7] = target: T5, human GPRC5D (G-protein coupled receptor family C group 5 member D) on cells (human, UniProt Q9NZD1 1-345); assay: flow cytometry, H929 BCMA KO cells, 1 h 37C; Run 5
T5 construct: Target on H929 or MM.1R BCMA knockout cells, K562 cells expressing human GPRC5D and HEK293 cells of the cell microarray
Method: as §1

[8] = target: T4, human CD3 (CD3ε of the TCR/CD3 complex) …; assay: flow cytometry, human pan T cells, Donor 3, 1 h 37C; average of runs
Method: as §2, §3

[9] = target: T2, human BCMA (B cell maturation antigen, …); assay: flow cytometry, MM.1R GPRC5D KO cells, 1 h 37C; average of runs
[10] = target: T6, cynomolgus GPRC5D on K562 cells (cynomolgus monkey); assay: flow cytometry, K562 cells expressing cynomolgus against human GPRC5D, 1 h 37C
T6 construct: whole, on cells; also called cyno GPRC5D
Method: FIGS. 9A-E. BGCB463 (circles) or negative control B23B251 (triangles) were all incubated with K562 cells expressing human GPRC5D (FIG. 9A), human BCMA (FIG. 9B), cynomolgus GPRC5D (FIG. 9C) or cynomolgus BCMA (FIG. 9D) for 1 hr at 37° C. at a starting concentration of 2 μM. After secondary detection with AF647-anti-human IgG, the MFI signal was analyzed to generate an EC₅₀ and EC₉₀ (FIG. 9E). Data are representative of two independent experiments.
The GPRC5D (i.e., GC5B680) and BCMA binding arms were assessed for cross-reactivity to cynomolgus monkey as part of the BGCB463 molecule, which uses the identical binding arms as BGCB491. Cross reactivity to cynomolgus monkeys was profiled for both target-binding scFv arms using FACS-based cell binding at 37° C. for 1 hour with K562 stably expressing human or cynomolgus monkey GPRC5D or BCMA. The cell-based EC₅₀ value for the GC5B680 scFv arm was approximately 30 nM against human GPRC5D-expressing cells and about 10-fold weaker (approximately 400 nM) on cynomolgus monkey GPRC5D-expressing cells.

T3 sequence (A0A2K5UD97 entry or part of it): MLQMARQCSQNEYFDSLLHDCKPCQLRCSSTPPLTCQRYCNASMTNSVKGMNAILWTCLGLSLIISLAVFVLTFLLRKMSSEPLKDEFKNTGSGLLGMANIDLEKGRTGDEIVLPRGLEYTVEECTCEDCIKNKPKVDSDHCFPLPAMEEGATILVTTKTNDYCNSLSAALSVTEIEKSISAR
T5 sequence (Q9NZD1 whole entry): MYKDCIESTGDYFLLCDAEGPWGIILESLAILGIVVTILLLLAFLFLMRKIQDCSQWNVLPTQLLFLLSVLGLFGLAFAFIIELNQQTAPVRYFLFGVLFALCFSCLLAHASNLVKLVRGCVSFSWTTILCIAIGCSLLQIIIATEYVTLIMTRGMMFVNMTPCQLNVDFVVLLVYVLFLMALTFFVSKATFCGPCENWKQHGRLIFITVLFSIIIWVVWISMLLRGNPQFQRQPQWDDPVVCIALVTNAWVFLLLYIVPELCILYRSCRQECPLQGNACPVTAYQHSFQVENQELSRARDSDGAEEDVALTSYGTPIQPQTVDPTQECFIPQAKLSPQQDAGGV

B1: BGCB491 (other)
heavy: QVQLQQSGPRLVRPSQTLSLTCAISGDSVFNNNAAWSWIRQSPSRGLEWLGRTYYRSKWLYDYAVSVKSRITVNPDTSRNQFTLQLNSVTPEDTALYYCARGYSSSFDYWGQGTLVTVSSASTKGPSVFPLAPSSKSTSGGTAALGCLVKDYFPEPVTVSWNSGALTSGVHTFPAVLQSSGLYSLSSVVTVPSSSLGTQTYICNVNHKPSNTKVDKKVEPKSCDKTHTCPPCPAPEAAGGPSVFLFPPKPKDTLMISRTPEVTCVVVSVSHEDPEVKFNWYVDGVEVHNAKTKPREEQYNSTYRVVSVLTVLHQDWLNGKEYKCKVSNKALPAPIEKTISKAKGQPREPQVYTLPPSREEMTKNQVSLSCAVKGFYPSDIAVEWESNGQPENNYKTTPPVLDSDGSFFLVSKLTVDKSRWQQGNVFSCSVMHEALHNRFTQKSLSLSPGKGGGGSGGGGSGGGGSGGGGS[letters of about 100 residues not shown]QFPHTFGQGTKLEIKGGSEGKSSGSGSESKSTGGSQVTLKESGPVLVKPTETLTLTCTVSGFSLTNIRMSVSWIRQPPGKALEWLAHIFSNDEKSYSTSLKSRLTISRDTSKSQVVLTLTNVDPVDTATYYCARMRLPYGMDVWGQGTTVTVSS
light: QSALTQPASVSGSPGQSITISCTGTSSNIGTYKFVSWYQQHPDKAPKVLLYEVSKRPSGVSSRFSGSKSGNTASLTISGLQAEDQADYHCVSYAGSGTLLFGGGTKLTVLGQPKAAPSVTLFPPSSEELQANKATLVCLISDFYPGAVTVAWKADSSPVKAGVETTTPSKQSNNKYAASSYLSLTPEQWKSHRSYSCQVTHEGSTVEKTVAPTECS
chain: EIVLTQSPGTLSLSPGERATLSCRASQSISSSFLTWYQQKPGQAPRLLIYGASSRATGIPDRFSGGGSGTDFTLTISRLEPEDFAVYYCQHYGSSPMYTFGQGTKLEIKGGSEGKSSGSGSESKSTGGS[letters of about 100 residues not shown]DEGYSSGHYYGMDVWGQGTTVTVSSEPKSSDKTHTCPPCPAPEAAGGPSVFLFPPKPKDTLMISRTPEVTCVVVSVSHEDPEVKFNWYVDGVEVHNAKTKPREEQYNSTYRVVSVLTVLHQDWLNGKEYKCKVSNKALPAPIEKTISKAKGQPREPQVYTLPPSREEMTKNQVSLWCLVKGFYPSDIAVEWESNGQPENNYKTTPPVLDSDGSFFLYSKLTVDKSRWQQGNVFSCSVMHEALHNHYTQKSLSLSPGK
notes: Trispecific IgG1 antibody (L234A, L235A, D265S); Heavy chain 1 = anti-CD3 (CD3B376) Fab heavy chain, hole and RF mutations, with C-terminal anti-GPRC5D scFv (GC5B680); Heavy chain 2 = anti-BCMA scFv (BCMB519) - Fc knob; also called JNJ-79635322; BCMA×GPRC5D×CD3 trispecific mAb
Kd [1]: 21.7 nM | EC50 [2]: 210 nM | EC50 [3]: 54 nM

B2: BGCB463 (other)
heavy: QVQLQQSGPRLVRPSQTLSLTCAISGDSVFNNNAAWSWIRQSPSRGLEWLGRTYYRSKWLYDYAVSVKSRITVNPDTSRNQFTLQLNSVTPEDTALYYCARGYSSSFDYWGQGTLVTVSSASTKGPSVFPLAPSSKSTSGGTAALGCLVKDYFPEPVTVSWNSGALTSGVHTFPAVLQSSGLYSLSSVVTVPSSSLGTQTYICNVNHKPSNTKVDKKVEPKSCDKTHTCPPCPAPEAAGGPSVFLFPPKPKDTLMISRTPEVTCVVVSVSHEDPEVKFNWYVDGVEVHNAKTKPREEQYNSTYRVVSVLTVLHQDWLNGKEYKCKVSNKALPAPIEKTISKAKGQPREPQVYTLPPSREEMTKNQVSLSCAVKGFYPSDIAVEWESNGQPENNYKTTPPVLDSDGSFFLVSKLTVDKSRWQQGNVFSCSVMHEALHNRFTQKSLSLSPGK
light: QSALTQPASVSGSPGQSITISCTGTSSNIGTYKFVSWYQQHPDKAPKVLLYEVSKRPSGVSSRFSGSKSGNTASLTISGLQAEDQADYHCVSYAGSGTLLFGGGTKLTVLGQPKAAPSVTLFPPSSEELQANKATLVCLISDFYPGAVTVAWKADSSPVKAGVETTTPSKQSNNKYAASSYLSLTPEQWKSHRSYSCQVTHEGSTVEKTVAPTECS
chain: [letters of about 100 residues not shown]QFPHTFGQGTKLEIKGGSEGKSSGSGSESKSTGGSQVTLKESGPVLVKPTETLTLTCTVSGFSLTNIRMSVSWIRQPPGKALEWLAHIFSNDEKSYSTSLKSRLTISRDTSKSQVVLTLTNVDPVDTATYYCARMRLPYGMDVWGQGTTVTVSSEPKSSDKTHTCPPCPAPEAAGGPSVFLFPPKPKDTLMISRTPEVTCVVVSVSHEDPEVKFNWYVDGVEVHNAKTKPREEQYNSTYRVVSVLTVLHQDWLNGKEYKCKVSNKALPAPIEKTISKAKGQPREPQVYTLPPSREEMTKNQVSLWCLVKGFYPSDIAVEWESNGQPENNYKTTPPVLDSDGSFFLYSKLTVDKSRWQQGNVFSCSVMHEALHNHYTQKSLSLSPGKGGSEGKSSGSGSESKSTGGSEIVLTQSPGTLSLSPGERATLSCRASQSISSSFLTWYQQKPGQAPRLLIYGASSRATGIPDRFSGGGSGTDFTLTISRLEPEDFAVYYCQHYGSSPMYTFGQGTKLEIKGGSEGKSSGSGSESKSTGGS[letters of about 100 residues not shown]DEGYSSGHYYGMDVWGQGTTVTVSS
notes: Trispecific IgG1 antibody (L234A, L235A, D265S); Heavy chain 1 = anti-CD3 (CD3B376) Fab heavy chain with hole and RF mutations; also called BGCB463.003; BGCB463.004
binding result [4]: no binding (tested: 2 µM) | EC50 [5]: 212 nM | EC50 [6]: 251 nM | EC50 [7]: 48.8 nM | EC50 [8]: 354 nM | EC50 [9]: 316 nM | fold weaker than on human GPRC5D [10]: ~10 fold
